We go through 17 substances from paper PMC12494564, “CLIC5A binds to and stabilizes the open and active conformation of ezrin” (The Journal of Biological Chemistry, 2025).

Amino acid sequences for entries named in this document (tags omitted). A change or cut given only in a name is not applied to a line headed by its entry. Chains listed by the source or under a name are the forms on record and can include a tag or linker. Residues count along the entry.
CLIC5A_(22-251), N-terminal deletion mutant, yeast two-hybrid bait (Q9NZA1, residues 181-410): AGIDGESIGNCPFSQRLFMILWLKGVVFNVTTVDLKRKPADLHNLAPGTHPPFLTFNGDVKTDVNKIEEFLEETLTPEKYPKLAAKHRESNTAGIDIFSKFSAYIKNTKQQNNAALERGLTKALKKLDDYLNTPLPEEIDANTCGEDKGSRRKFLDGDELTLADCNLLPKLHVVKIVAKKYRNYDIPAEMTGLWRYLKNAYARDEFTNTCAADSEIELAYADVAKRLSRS
UniProt P15311: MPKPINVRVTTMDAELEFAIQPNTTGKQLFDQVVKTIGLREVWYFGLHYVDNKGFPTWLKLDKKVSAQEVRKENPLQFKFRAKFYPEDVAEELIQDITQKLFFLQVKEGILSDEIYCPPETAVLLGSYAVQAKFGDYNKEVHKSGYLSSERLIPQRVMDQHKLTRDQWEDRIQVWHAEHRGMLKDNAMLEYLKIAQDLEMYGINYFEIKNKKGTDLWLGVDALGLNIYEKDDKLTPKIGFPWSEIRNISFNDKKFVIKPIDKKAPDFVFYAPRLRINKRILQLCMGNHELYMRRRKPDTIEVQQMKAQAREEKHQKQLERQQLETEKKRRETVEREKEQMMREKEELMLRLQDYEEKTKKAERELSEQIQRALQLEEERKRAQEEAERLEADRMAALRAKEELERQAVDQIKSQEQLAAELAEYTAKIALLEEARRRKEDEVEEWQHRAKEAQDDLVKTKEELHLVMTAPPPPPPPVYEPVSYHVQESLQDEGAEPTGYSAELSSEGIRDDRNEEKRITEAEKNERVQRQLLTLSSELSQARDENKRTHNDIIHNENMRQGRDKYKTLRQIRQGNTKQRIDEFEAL
phosphomimetic GFP-ezrin_(432-586) (T567D) expressed in COS-7 cells (P15311, form named): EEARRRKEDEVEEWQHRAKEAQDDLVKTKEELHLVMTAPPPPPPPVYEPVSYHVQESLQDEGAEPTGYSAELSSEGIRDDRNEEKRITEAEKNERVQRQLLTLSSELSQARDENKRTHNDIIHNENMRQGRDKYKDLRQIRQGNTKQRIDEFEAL
UniProt P26038: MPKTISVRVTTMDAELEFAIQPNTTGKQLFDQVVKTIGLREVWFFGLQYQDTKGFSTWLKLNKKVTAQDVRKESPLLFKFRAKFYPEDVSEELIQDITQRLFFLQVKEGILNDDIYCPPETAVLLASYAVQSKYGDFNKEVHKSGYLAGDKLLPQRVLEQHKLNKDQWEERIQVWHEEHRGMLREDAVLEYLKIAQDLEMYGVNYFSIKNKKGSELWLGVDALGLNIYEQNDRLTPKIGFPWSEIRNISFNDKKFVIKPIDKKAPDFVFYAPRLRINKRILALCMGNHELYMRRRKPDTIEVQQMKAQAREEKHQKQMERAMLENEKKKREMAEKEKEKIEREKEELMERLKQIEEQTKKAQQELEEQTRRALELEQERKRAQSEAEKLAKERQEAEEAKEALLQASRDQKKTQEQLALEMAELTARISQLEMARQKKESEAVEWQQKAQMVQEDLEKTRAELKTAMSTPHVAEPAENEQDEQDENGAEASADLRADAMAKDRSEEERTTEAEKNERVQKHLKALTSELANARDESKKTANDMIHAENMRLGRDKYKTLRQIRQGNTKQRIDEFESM
UniProt P35241: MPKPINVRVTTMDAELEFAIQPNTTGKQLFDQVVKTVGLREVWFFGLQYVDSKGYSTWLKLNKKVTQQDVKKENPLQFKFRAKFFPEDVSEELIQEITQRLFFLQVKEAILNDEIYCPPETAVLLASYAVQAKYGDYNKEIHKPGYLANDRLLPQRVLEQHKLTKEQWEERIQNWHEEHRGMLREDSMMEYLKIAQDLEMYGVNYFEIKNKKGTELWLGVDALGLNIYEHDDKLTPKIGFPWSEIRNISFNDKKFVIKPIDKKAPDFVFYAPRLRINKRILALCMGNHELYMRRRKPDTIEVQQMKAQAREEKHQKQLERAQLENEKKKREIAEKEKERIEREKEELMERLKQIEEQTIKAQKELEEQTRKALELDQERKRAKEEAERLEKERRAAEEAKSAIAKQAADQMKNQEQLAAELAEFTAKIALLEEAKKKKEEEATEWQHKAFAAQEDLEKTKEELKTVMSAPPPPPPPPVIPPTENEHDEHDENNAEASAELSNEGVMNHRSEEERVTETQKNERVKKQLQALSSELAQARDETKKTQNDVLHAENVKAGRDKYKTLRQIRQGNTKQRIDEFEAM
UniProt P26043, residues 330-583: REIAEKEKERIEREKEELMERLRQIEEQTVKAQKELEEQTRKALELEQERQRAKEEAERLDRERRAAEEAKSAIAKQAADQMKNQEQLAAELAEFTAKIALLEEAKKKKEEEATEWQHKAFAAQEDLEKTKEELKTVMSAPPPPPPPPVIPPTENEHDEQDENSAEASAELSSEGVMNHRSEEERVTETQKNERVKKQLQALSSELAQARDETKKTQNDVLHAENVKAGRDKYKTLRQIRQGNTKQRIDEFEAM

No constants are given. Whether binding was seen depends on the method and setting. For some of these results: Binding seen in cells or lysates may run through a third protein. Some results given as binding are weak or reduced against the parent protein; the word gives no strength.

Test [1] concerns the target GST-CLIC5A (human) (UniProt Q9NZA1). Briefly: pull-down; GST-CLIC5A with glutathione beads, 2 h in the cold room, with cell lysates holding endogenous or transiently expressed proteins; lysis buffer 1% Triton X-100, 20 mM Hepes pH 7.4, 0.6 M KCl, 1 mM EDTA; some cells treated with calyculin A (50 nM) before lysis; Western blot; only the target purified. On the technique in general: In western blotting, separated proteins are transferred to a membrane and probed.

Test [2] shares this target. Briefly: pull-down; immobilized GST-CLIC5A with HA-ezrin fragments produced by in vitro transcription/translation; Western blot; only the target purified.
The target in test [3] is GFP-CLIC5A expressed in COS-7 cells (human) (UniProt Q9NZA1). Nature of the test: co-IP; HA-ezrin constructs coexpressed with GFP-CLIC5A in COS-7 cells; goat anti-GFP antibody and protein G plus/protein A-agarose; lysis buffer 50 mM Tris-HCl pH 7.4, 150 mM NaCl, 1.0% NP-40, 0.5% sodium deoxycholate, 100 nM calyculin-A.
For test [4], the target named is CLIC5A, full length (aa 1-251), yeast two-hybrid bait (human) (UniProt Q9NZA1). Briefly: two-hybrid; GAL4-based Matchmaker Gold Y2H; CLIC5A constructs as bait (pGBKT7, Y2HGold), ERM constructs as prey (pGAD-T7, Y187), mated; DDO, DDO/X (X-α-Gal) and DDO/X/A (aureobasidin A) plates, 30 °C.
Test [5] deals with CLIC5A_(1-232), C-terminal deletion mutant, yeast two-hybrid bait (human) (UniProt Q9NZA1). The description is as above.
The target in test [6] is CLIC5A_(22-251), N-terminal deletion mutant, yeast two-hybrid bait (human) (UniProt Q9NZA1). Described as above.
Test [7] deals with CLIC5A, bait of the Hybrigenics yeast two-hybrid screen (human) (UniProt Q9NZA1). Briefly: two-hybrid; yeast two-hybrid protein domain screen by Hybrigenics; CLIC5A as bait, adult mouse kidney library as prey.

With “GFP-ezrin_(432-570) expressed in COS-7 cells (from UniProt P15311 432-570) (domain or fragment)”, the binding entry with GST-CLIC5A (human) [1] is “no binding”.
As to “GFP-ezrin_(432-586) expressed in COS-7 cells (from UniProt P15311 432-586) (domain or fragment)”, the binding result in the test with GST-CLIC5A (human) [1] was “binds”.
For “HA-ezrin_(297-586), in vitro transcribed and translated (from UniProt P15311 297-586) (domain or fragment)”, the binding entry in the test with GST-CLIC5A (human) [2] is “binds”.
For the substance “HA-ezrin_(432-570) expressed in COS-7 cells (from UniProt P15311 432-570) (domain or fragment)”, in test [3], the binding entry was “no binding”.
“HA-ezrin_(432-570), in vitro transcribed and translated (from UniProt P15311 432-570) (domain or fragment)”: in the test with GST-CLIC5A (human) [2], the binding result is given as “no binding”.
In the case of “HA-ezrin_(432-586) expressed in COS-7 cells (from UniProt P15311 432-586) (domain or fragment)”, the binding entry in test [3] was “binds”.
Consider “HA-ezrin_(432-586), in vitro transcribed and translated (from UniProt P15311 432-586) (domain or fragment)”, for which the binding result in the test with GST-CLIC5A (human) [2] is “binds”.
Consider “N-terminal FERM domain of ezrin (ezrin_(1-296)), yeast two-hybrid prey (from UniProt P15311 1-296) (domain or fragment)”, for which the binding result in test [4] is “no binding”.
Regarding “endogenous moesin of HeLa cells (from UniProt P26038 1-577)”, the binding result in the test with GST-CLIC5A (human) [1] is reported as “binds”.
“endogenous radixin of HeLa cells (from UniProt P35241 1-583)”: in the test with GST-CLIC5A (human) [1], the binding entry is given as “binds”.
As for “ezrin_(432-570), ezrin C terminus without the last 16 amino acids, yeast two-hybrid prey (from UniProt P15311 432-570) (domain or fragment)”, the binding entry in test [4] is “no binding”.
Turning to “ezrin_(432-586), yeast two-hybrid prey (from UniProt P15311 432-586) (domain or fragment)”, the figures for the binding result in test [4], in test [5] and in test [6] were “binds”, “no binding” and “no binding”, respectively.
On to “ezrin_(550-586), yeast two-hybrid prey (from UniProt P15311 550-586) (domain or fragment)”, for which, in test [4], the binding result is given as “binds weakly”.
Regarding “moesin_(432-577), yeast two-hybrid prey (from UniProt P26038 432-577) (domain or fragment)”, in test [4], the binding entry is “binds”.
In the case of “phosphomimetic GFP-ezrin_(432-586) (T567D) expressed in COS-7 cells (from UniProt P15311 432-586) (domain or fragment)”, the binding entry with GST-CLIC5A (human) [1] is recorded as “binds”.
In the case of “radixin C-terminal domain (aa 330-583), prey from the mouse kidney library (from UniProt P26043 330-583) (domain or fragment)”, the binding entry in test [7] is given as “binds”.
With “radixin_(432-583), yeast two-hybrid prey (from UniProt P35241 432-583) (domain or fragment)”, the binding entry in test [4] was “binds”.
